Sequences with one replicate were seen in a single cluster, so their values are uncertain.
Tested on: ATP
Test: switch fluorescence ratio, 500 uM ATP over buffer (Cy3 cluster intensity, sum of 5 cycles each) (fold (ratio)); higher = stronger signal-on switching upon ATP binding; sequences stand for … in TCGTCGGCAGCGTCAGATGTGTATAAGAGACAGTTTTTTTTTTTTTTTTTTTTTTTTT…TC
Settings: aptamer strand: ATP DNA aptamer (quencher-CACCTGGGGGAGTATTGCGGAGGAAGG + anchor), 100 nM annealed; ATP concentration: 500 uM; one replicate
Outline: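 Imaging in selection buffer was followed by imaging after 15 min with 500 uM ATP at 22 °C, for Cy3-labelled switching-strand clusters annealed to 100 nM quencher-labelled ATP aptamer on a modified Illumina MiSeq flow-cell. Five of these buffer/ATP cycles ran, separated by NaOH stripping and re-annealing. The fluorescence ratio per cluster is summed target-cycle over summed buffer-cycle Cy3 intensity, averaged per switch-domain sequence; clusters outside 100-1000 RFU were removed.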
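Further: ATP exposure 15 min at 22 °C before imaging.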

Sequence	switch fluorescence ratio
CGTAAGGTCC	1.01
ACCTTCGCAC	3.85
TGATTTATGT	0.983
CTCGCAGTAT	2.97
TTAATTCTTT	1.03
CACCTTGGAA	1.03
TCCTTCGAAT	1.16
ATTGCGTACC	1
AATCTCCGAC	1.7
GGATGGTTTG	0.98
TCACGGTGGG	0.996
GCTAAATCAC	1.17
CATGTGTCCT	0.934
TTTTCGGAAA	0.995
AGGCTAGAGG	1.04
AAAGACCCTT	1.15
GAATCCATGT	1.02
TGTCTCAGCT	1
AGAAAGTACA	1.19
AGCCGGTCCC	1.05
TACTATCAGT	0.97
CCCGCCCGCC	2.83
TCATGTGCG	0.976
CCTATCGATT	1.03
GCGCTGGG	1.05
GAGGCTCAAC	0.976

Sequence	switch fluorescence ratio
GCTTACAGTT	1.04
ATACGCGCAA	1.72
GCTACCCCGT	1.38
TCTCACAGAG	1.02
TTTGGATCCA	0.987
AACAGCTATA	1.07
GACCGCGCTT	1.06
ACTCGTTCGT	1.05
TATTGATGGC	0.98
GGAAATCAAC	1.12
ATACACTTGA	1.08
TGGTAGTACG	0.986
GATGGTTTG	0.978
GGGCATC	1.07
GTATCGTTGT	0.943
AGGTATCGTA	0.987
TCTTGTAAAT	1.63
GGCCAAGCTT	0.999
GAGAAGGGGT	1
TAGCAGGTTT	1.01
CCCGCATAGG	3.27
GGTAATCGAC	1.04
TGAATAAGCT	1.02
TATTACCGT	1.05
CGCTGGCCGC	0.974
GAGAGATAG	1.05

Sequence	switch fluorescence ratio
ATATCTTTAC	1.01
ATATCGAGAA	0.968
ACTCAGACAG	1.1
TGTTGCCAAA	0.981
AGGTTTTG	1.03
TCAGTAATCA	1.02
GATTAAGG	0.965
AATCTCTTAG	0.956
GCCATCGGGC	1.01
ATTAAAGTCC	0.962
GTACCCTAAC	1.17
GATCTTGAAT	0.984
TTTGCTAGCG	0.974
AAAGGTCGTC	1.01
GAATCCACGC	1.12
AGTTCCCTGC	1.04
AAACGGGTGG	1.05
AAAGACAAAA	0.942
TCGGAGCCGC	1.13
GCATATATCT	1.06
GCAGATGGGG	1.03
AATTGACAAA	0.966
CATGCCGTAG	1.01
TCTAAAAACC	0.97
GGGACACCAC	1.13
GCTCGTCAAA	0.996

Sequence	switch fluorescence ratio
GGGGCATAGA	1.02
GCATCGAACT	1.04
GAAGGCGGTA	0.992
TAGGACACCC	1
AGGATGTGTT	0.972
GAAATGCGGT	0.997
CACACGCGA	2.33
CGGTCGTACT	0.988
GACTCCTGTA	1.07
GGCTCGCGAC	1.1
TGCACCTGCC	1.56
TTAGGAGACC	0.98
TTCGATAGGG	0.989
TCGAAGGAT	1
TATAAAGTTC	1.05
ACATTCATAA	1.05
GAATCTTTTC	0.98
GGACGGAACT	1.07
ACGGTATGGA	1.04
GTTGGAGGG	1
AAATCATATC	1.02
AATACGAAGA	1.03
CCGTATATAG	1.29
TGGCAGGTGC	1.4
AGCTCCCCGT	1.34
TCGTGCTGAT	0.98

Sequence	switch fluorescence ratio
ATTTGATTTT	1
GCTTTTATTG	1
CAGTTTTCTC	0.991
TAATTGGCCT	1.02
TTGGTCGCCG	0.987
GCGTAAAAT	0.987
AAACGCCAAA	1.04
GTAATAACA	0.985
GGAGTGTCAT	0.982
ATACAGGAGA	1.02
CAGACCCAGG	1.19
ACCACGGAAT	1.11
GAAGGTTAGA	0.986
CGAGAGACTT	1
TTTTGCCTCA	0.995
ACATCGAAGG	1
AGCGTTATCT	0.987
TTTTCACACA	0.935
TTTAATACCT	1.02
GTGCCTTGTG	0.99
GAGGTTAGTG	0.937
AGCATATT	1.45
AAGGAGCGCG	1.06
ACTTCGGTTG	1.01
TGCTATTAAT	1.06
TAGTCTGCTG	0.956

Sequence	switch fluorescence ratio
CGCCCCATTT	1.01
AGAGGGAGCG	0.96
CGACAGGGTG	1.11
ATAATGTGAT	0.966
CAGATGTTGT	0.987
ATTTTCAGTC	0.961
TTGGGAGAA	1.01
TATTTGTACA	1.05
TGTCCTAACC	0.998
GGGTCACAAG	0.968
GGGGTGATAA	0.969
ATCTACAGG	1.14
GAGGATCGTG	0.944
CCAAGAGTAT	1.04
TGTGGTACCG	0.971
GAAATTCATC	0.971
TTTGGCATT	1.1
GAGATATCGG	1.02
TTGCAGAGG	1.03
GCGCCGCGGT	1.37
AAACGCAGGC	1.58
GCACAACGTA	1.06
TACGCGTAGT	0.998
CCGCGAAGTC	4.05

From the supplement of paper PMC10126150
